Source: PMC4432656
Numbering of substitutions follows the chain as printed. These are yes or no findings as the source states them, for the method shown. Binding seen in cells or lysates may run through a third protein. Some results given as binding are weak or reduced against the parent protein; the word gives no strength. Tags and fused reporters may be left off the sequences shown.

Sequences of proteins named here, by UniProt entry; tags and fusion partners are left off.
UniProt Q3TKT4: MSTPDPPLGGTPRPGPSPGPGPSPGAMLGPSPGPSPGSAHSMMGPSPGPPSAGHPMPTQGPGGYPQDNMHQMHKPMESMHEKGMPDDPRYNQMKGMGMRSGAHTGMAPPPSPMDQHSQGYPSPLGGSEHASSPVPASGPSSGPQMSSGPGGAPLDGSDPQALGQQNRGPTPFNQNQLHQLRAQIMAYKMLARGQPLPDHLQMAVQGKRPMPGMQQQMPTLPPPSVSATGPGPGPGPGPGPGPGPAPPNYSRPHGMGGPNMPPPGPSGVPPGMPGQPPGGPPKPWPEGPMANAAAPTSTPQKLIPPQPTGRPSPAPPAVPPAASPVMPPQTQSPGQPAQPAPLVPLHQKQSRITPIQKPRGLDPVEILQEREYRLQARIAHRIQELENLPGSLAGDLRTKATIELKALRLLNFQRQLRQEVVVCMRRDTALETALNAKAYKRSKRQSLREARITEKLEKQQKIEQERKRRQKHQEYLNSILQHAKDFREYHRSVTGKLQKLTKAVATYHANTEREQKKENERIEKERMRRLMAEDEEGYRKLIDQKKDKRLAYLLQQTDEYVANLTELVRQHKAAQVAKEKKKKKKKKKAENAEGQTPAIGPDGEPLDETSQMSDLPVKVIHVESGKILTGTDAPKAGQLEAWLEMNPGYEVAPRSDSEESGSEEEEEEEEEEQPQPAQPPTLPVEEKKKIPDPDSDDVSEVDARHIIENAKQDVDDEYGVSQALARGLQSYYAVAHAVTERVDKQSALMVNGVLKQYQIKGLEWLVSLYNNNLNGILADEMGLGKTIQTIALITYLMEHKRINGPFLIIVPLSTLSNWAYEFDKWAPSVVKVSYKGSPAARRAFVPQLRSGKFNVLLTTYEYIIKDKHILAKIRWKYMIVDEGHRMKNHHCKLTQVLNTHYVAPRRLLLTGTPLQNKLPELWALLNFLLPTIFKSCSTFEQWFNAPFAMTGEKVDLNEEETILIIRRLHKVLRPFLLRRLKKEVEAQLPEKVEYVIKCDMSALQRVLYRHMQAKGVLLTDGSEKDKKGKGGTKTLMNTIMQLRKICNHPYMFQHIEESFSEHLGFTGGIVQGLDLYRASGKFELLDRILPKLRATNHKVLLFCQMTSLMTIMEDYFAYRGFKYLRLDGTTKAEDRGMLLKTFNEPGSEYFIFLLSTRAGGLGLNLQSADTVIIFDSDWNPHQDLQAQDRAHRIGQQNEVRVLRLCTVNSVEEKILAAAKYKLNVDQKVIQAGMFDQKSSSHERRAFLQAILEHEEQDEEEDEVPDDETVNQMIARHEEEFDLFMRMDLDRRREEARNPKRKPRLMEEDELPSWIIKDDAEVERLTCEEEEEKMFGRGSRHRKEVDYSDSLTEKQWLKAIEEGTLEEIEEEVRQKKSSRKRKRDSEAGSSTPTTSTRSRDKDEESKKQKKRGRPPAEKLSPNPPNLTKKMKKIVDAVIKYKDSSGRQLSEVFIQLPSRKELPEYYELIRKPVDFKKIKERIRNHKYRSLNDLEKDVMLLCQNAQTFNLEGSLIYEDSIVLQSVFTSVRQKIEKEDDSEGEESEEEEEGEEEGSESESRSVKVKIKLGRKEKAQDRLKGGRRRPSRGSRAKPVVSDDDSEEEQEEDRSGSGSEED
UniProt P37238: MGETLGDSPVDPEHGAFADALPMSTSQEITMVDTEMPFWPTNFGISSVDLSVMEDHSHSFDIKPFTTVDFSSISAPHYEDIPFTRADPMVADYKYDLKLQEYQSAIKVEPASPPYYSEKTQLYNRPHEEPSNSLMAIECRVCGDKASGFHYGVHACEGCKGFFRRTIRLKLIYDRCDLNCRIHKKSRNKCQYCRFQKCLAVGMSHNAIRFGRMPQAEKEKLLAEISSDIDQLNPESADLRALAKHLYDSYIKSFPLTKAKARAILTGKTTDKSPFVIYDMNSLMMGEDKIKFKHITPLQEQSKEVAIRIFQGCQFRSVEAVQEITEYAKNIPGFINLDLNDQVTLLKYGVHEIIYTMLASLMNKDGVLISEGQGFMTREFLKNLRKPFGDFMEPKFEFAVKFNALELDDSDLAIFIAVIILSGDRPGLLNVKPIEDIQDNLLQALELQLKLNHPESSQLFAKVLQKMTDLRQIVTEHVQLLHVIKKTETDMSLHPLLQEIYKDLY
UniProt A2BH40: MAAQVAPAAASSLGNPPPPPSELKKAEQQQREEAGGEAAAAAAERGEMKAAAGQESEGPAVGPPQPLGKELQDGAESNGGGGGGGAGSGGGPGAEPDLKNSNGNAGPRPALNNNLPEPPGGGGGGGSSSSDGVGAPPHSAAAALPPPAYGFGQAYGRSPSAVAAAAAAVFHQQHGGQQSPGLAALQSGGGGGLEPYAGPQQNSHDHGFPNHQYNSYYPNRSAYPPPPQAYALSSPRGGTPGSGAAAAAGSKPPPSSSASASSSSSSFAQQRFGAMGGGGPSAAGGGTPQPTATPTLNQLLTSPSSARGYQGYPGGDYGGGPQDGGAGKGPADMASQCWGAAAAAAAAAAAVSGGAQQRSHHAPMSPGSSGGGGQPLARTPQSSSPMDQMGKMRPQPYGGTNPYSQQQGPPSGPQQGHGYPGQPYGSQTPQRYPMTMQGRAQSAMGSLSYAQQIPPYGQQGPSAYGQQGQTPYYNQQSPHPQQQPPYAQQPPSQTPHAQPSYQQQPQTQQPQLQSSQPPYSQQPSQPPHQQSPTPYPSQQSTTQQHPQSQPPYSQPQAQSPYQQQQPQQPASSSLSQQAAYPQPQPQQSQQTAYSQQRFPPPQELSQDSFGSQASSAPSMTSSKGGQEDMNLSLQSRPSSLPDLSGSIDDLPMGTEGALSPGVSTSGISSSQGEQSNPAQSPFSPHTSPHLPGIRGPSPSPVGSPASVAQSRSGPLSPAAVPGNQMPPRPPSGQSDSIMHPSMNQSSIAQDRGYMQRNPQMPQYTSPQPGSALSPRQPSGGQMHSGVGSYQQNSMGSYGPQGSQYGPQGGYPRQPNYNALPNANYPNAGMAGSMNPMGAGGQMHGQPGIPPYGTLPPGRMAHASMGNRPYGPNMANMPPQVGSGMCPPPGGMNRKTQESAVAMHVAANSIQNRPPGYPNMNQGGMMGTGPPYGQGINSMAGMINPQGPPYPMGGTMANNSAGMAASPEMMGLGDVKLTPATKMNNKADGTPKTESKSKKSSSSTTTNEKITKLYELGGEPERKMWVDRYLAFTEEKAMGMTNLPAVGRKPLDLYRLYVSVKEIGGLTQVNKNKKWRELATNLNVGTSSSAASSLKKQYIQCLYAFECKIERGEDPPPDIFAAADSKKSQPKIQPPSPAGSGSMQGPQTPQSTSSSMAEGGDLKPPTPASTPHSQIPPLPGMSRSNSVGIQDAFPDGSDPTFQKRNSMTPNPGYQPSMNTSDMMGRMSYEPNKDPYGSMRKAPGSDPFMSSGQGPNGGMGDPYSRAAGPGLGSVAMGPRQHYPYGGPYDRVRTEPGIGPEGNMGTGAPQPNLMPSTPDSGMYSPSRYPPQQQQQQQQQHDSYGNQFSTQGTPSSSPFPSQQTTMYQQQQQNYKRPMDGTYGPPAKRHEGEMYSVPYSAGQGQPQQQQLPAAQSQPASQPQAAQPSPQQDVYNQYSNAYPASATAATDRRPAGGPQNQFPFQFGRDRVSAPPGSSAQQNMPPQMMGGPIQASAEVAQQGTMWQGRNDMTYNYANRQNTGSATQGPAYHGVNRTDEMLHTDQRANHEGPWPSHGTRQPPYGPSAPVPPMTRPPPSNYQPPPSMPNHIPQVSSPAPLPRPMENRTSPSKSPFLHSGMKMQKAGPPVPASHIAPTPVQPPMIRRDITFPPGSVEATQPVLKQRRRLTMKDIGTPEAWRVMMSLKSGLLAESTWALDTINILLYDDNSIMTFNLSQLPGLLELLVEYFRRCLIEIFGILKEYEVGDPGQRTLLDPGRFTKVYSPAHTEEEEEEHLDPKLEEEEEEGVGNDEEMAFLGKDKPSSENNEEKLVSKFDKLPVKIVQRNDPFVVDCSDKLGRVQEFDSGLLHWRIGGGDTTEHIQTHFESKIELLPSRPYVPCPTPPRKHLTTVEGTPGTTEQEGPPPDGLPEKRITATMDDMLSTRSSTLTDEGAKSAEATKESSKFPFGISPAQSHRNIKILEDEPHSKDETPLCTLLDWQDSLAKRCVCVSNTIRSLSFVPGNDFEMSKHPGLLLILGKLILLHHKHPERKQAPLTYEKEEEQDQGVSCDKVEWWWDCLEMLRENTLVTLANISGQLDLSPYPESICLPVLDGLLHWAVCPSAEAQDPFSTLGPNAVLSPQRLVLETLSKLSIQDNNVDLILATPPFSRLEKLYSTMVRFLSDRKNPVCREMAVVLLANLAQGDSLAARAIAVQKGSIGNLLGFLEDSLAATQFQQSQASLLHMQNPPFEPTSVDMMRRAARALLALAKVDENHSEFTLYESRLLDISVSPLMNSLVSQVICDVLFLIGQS
UniProt Q99JR8: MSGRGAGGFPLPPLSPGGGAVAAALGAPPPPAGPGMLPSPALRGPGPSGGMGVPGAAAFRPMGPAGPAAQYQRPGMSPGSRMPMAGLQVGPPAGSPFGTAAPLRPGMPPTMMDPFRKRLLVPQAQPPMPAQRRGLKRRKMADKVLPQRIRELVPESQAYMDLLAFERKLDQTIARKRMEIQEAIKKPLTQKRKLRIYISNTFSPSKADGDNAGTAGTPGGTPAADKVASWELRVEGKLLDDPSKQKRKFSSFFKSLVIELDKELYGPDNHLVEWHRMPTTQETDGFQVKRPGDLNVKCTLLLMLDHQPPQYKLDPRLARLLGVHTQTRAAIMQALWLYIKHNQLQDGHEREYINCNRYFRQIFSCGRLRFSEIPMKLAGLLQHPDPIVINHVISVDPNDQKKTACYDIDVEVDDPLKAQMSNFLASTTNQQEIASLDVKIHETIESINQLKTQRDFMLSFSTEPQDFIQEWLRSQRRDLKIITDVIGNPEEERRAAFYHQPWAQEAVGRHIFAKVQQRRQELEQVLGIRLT

What was measured:
[1] = biological target: T1, phospho-S265-JMJD1A (V5-tagged WT-hJMJD1A from ISO-treated cells) (human) (UniProt Q9Y4C1); test: co-IP; IP with anti-V5 from nuclear extracts of WT- or S265A-hJMJD1A-iBAT^shs treated with ISO (10 uM for 1 h) or vehicle; IB with anti-BRG1, anti-ARID1A, anti-BAF60b or anti-PPARγ; 50 mM HEPES-KOH pH 7.9, 150 mM NaCl, 1.5 mM MgCl2, 1% NP-40, 6 h at 4 °C
T1 sequence (chain, phosphoserine at 265): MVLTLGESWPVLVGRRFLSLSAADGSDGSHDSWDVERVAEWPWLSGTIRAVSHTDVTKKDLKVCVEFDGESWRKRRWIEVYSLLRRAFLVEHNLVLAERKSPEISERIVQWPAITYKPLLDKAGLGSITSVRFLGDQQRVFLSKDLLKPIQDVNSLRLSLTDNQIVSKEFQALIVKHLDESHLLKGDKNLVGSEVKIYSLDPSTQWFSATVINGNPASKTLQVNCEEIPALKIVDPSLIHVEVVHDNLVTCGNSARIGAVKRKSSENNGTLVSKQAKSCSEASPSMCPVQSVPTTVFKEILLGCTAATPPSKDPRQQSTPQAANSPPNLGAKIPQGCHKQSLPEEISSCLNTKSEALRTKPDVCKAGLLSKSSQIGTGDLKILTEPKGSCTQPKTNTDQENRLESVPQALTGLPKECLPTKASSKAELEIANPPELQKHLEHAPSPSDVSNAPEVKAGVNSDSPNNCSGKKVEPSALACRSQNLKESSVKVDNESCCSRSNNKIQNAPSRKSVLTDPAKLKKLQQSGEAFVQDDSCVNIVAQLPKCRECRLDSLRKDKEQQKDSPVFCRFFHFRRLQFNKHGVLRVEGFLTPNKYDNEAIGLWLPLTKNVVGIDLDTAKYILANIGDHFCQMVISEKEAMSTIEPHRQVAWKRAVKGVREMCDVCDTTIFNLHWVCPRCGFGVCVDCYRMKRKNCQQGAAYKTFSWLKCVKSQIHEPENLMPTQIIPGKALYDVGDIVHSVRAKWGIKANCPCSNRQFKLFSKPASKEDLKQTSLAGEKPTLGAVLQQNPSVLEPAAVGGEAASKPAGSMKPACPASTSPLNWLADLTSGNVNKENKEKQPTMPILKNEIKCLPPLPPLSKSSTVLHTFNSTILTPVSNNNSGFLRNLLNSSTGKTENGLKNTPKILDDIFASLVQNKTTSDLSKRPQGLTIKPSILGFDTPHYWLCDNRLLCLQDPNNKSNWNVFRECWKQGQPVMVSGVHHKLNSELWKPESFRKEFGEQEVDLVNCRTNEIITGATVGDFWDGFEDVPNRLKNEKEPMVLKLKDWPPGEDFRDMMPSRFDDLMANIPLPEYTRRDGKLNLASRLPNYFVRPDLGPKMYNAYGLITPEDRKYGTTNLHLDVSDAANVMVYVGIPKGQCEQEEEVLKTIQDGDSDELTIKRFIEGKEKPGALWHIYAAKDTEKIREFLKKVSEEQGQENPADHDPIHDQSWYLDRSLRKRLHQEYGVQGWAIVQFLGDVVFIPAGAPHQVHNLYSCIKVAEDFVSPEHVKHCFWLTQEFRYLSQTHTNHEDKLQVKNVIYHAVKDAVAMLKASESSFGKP

[2] = biological target: T2, V5-tagged S265A-hJMJD1A (human) (UniProt Q9Y4C1); test: as above
T2 sequence: T1 sequence (chain, phosphoserine at 265) with S265A

[3] = biological target: T2, V5-tagged S265A-hJMJD1A (human); test: co-IP; cells pre-cultured 6 h in DMEM with 0.1% bovine serum albumin, then ISO (10 uM for 1 h) or vehicle; IP of nuclear extracts with anti-V5, IB with anti-PPARγ

binding [1] | binding [2] | binding [3] | Substance
binds | binds weakly | – | BRG1 (also referred to as SMARCA4) (from UniProt Q3TKT4 1-1613)
– | – | no binding | peroxisome proliferator-activated receptor-gamma (PPARγ) (from UniProt P37238 1-505)
binds | binds weakly | – | AT-rich interactive domain containing protein 1A (ARID1A) (from UniProt A2BH40 1-2283)
binds | binds weakly | – | BRG1-associated factor of 60 kDa, subunit b (BAF60b) (from UniProt Q99JR8 1-531)
